Test results as given in PubChem BioAssay AID493208 (National Center for Advancing Translational Sciences (NCATS), 2011).
Among all 44,000 compounds or so, about 340 (0.77%) were called active. About 5% were inconclusive and are not listed. Calls come from the whole dose curve; as a rule, active = well fitted inhibition curve with a large enough effect; inconclusive = small, poorly fitted or top-dose-only effect; inactive = flat fitted curve, though single readings scatter. This is one part of the list.
Potency is the fitted concentration of half-maximal effect.

Experiment: Acumen qHTS Assay for Inhibitors of the mTORC1 Signaling Pathway in MEF (Tsc2-/-, p53-/-) Cells: Sytravon; note: nearly all actives have a fitted effect of over 50% in size;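 for activity change, negative = inhibition: plate controls were DMSO for no effect and rapamycin for full effect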
Details: phospho-rpS6 immunofluorescence/PI, 24 h; series mostly up to 38.3 µM; activity change, negative = inhibition: at the top concentration
How it was run: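 Read-out: phospho-S6 Alexa-488 intensity over PI intensity per well, scored as % active cells using thresholds from rapamycin (7.5 nM) and DMSO controls. Tsc2-/-, p53-/- MEFs exposed to compound for 24 h; PI cell count recorded as viability.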
In the case of `CC1=C(C(=O)OC2CCCCCC2)C(c2ccc(Cl)cc2)CC(=O)N1` (stereo unspecified), the “activity change, negative = inhibition” value is reported as inactive: -16%.
In the case of `Cc1ccc2nc(-c3ccco3)c(Nc3ccc4c(c3)OCCO4)n2c1`, the “activity change, negative = inhibition” value is reported as inactive: -6.31%.
For `CC(=O)Nc1ccc(NC(=O)C2Cc3ccccc3N2C(=O)c2ccccc2)cc1` (stereo unspecified), the “activity change, negative = inhibition” value was inactive: 4.4%.
For `COc1ccc(Cn2c(CCC(=O)Nc3ccccc3OC)nc3cccnc32)cc1`, the “activity change, negative = inhibition” value was inactive: -16.7%.
In the case of `COc1cccc2[nH]c(C(=O)NCc3ccc4c(c3)CCN4C(=O)c3ccc(F)cc3)cc12`, the “activity change, negative = inhibition” value is reported as inactive: -23.3%.
With `COc1ccc(CNC(=O)c2ccc(-c3nc(CS(=O)c4ccc(C)cc4)c(C)o3)cc2)cc1` (stereo unspecified) the “activity change, negative = inhibition” value was inactive: -14.5%.
In the case of `CC(C)OCCCn1c(=O)c2ccccc2n2c(-c3ccccc3F)nnc12`, the “activity change, negative = inhibition” value is reported as inactive: -8.02%.
With `Cc1oc2ccc(O)c(CN3CCCC(C)C3)c2c1C(=O)Nc1ccccc1` (stereo unspecified) the Potency was active: 14.7 µM.
In the case of `COc1ccc2c(c1)c(=O)c(C(=O)c1ccc(Cl)cc1)cn2CC(=O)Nc1ccc2c(c1)OCCO2`, the “activity change, negative = inhibition” value is reported as inactive: 1.13%.
With `O=C(CSc1cn(CCNC(=O)c2c(F)cccc2F)c2ccccc12)Nc1ccccc1F` the “activity change, negative = inhibition” value was inactive: -2.48%.
In the case of `Cc1ccc2nc(-c3c[nH]c4ccccc34)c(Nc3ccc(F)cc3)n2c1`, the “activity change, negative = inhibition” value is reported as inactive: -4.52%.
In the case of `Cc1ccc(CNC(=O)C(C)n2c(=O)cc(-c3ccccc3)c3c(C)nn(C)c32)cc1` (stereo unspecified), the “activity change, negative = inhibition” value is reported as inactive: -4.74%.
In the case of `O=C(CCS(=O)(=O)c1cccc2nonc12)Nc1ccc(F)cc1F`, the “activity change, negative = inhibition” value is reported as inactive: -4.27%.
For `Cc1oc(-c2ccccc2Cl)nc1CSc1nncn2c1cc1occc12`, the “activity change, negative = inhibition” value was inactive: -1.61%.
With `COc1ccc(Br)cc1CNC(=O)Cn1ncn2nc(-c3cccs3)cc2c1=O` the “activity change, negative = inhibition” value was inactive: -0.0839%.
For `COc1ccc2c(Sc3ccccc3)c(C(=O)NCc3cc(Br)ccc3OC)[nH]c2c1`, the “activity change, negative = inhibition” value was inactive: -4.1%.
In the case of `Cc1ccc(OCC(=O)Nc2nc(-c3ccc(Br)cc3)ns2)cc1`, the “activity change, negative = inhibition” value is reported as inactive: -0.876%.
With `COc1ccccc1CNC(=O)c1ccc(CSc2nc3ccncc3n2Cc2cccc(F)c2)cc1` the “activity change, negative = inhibition” value was inactive: 0.691%.
In the case of `O=C(NCCc1ccc(F)cc1)C(=O)NCC(c1cccs1)S(=O)(=O)c1ccccc1` (stereo unspecified), the “activity change, negative = inhibition” value is reported as inactive: -21.9%.
In the case of `O=C(CC(c1cccs1)N1Cc2ccccc2C1=O)Nc1cccc(F)c1` (stereo unspecified), the “activity change, negative = inhibition” value is reported as inactive: 0%.
With `CCCn1ccc2c(OCC(=O)Nc3ccc(OC)c(OC)c3)cccc2c1=O` the “activity change, negative = inhibition” value was inactive: -0.354%.
With `CCOc1ccccc1CNc1nc2nc(C)c(CC(=O)OC)c(=O)n2[nH]1` the “activity change, negative = inhibition” value was inactive: -3.26%.
In the case of `Cc1cccc(-c2nc(C)c(CCNC(=O)C(=O)Nc3ccc(C)c(C)c3)s2)c1`, the “activity change, negative = inhibition” value is reported as inactive: 0.107%.
For `O=C(CSc1nc(=O)[nH]c2c1CCC2)NCc1ccc(F)cc1`, the “activity change, negative = inhibition” value was inactive: -11.2%.
With `COc1ccc(Cl)cc1S(=O)(=O)N1CCN(C(=O)c2cc(-c3ccc(Br)cc3)n[nH]2)CC1` the “activity change, negative = inhibition” value was inactive: -15%.
In the case of `Cc1ccc(-n2ncc3c(N4CCN(Cc5ccccc5)CC4)ncnc32)cc1`, the “activity change, negative = inhibition” value is reported as inactive: 0.128%.
With `Cc1cccc(C(=O)Nc2ccc(S(=O)(=O)N3CCCCC3c3cccnc3)cc2)c1` (stereo unspecified) the “activity change, negative = inhibition” value was inactive: -1.29%.
For `CCOc1ccc(NC(=O)c2oc3ccccc3c2NC(=O)Cc2cccc(C)c2)cc1`, the “activity change, negative = inhibition” value was inactive: 3.81%.
For `COc1ccc(OC)c(NS(=O)(=O)c2ccc(Br)s2)c1`, the “activity change, negative = inhibition” value was inactive: -7.24%.
With `CC(C)c1ccc(NC(=O)CCNS(=O)(=O)c2cccc3nsnc23)cc1` the “activity change, negative = inhibition” value was inactive: -0.495%.
For `CN1CCN(CCC(=O)Nc2ccc(Cl)cc2)CC1`, the “activity change, negative = inhibition” value was inactive: -4.82%.
With `COc1ccc(C(=O)Oc2ccc(C(c3c(C)[nH][nH]c3=O)c3c(C)[nH][nH]c3=O)cc2OC)cc1` the “activity change, negative = inhibition” value was inactive: -3.06%.
For `Cc1ccc(NC(=O)Cn2c(=O)ccc3cc(S(=O)(=O)N4CCC(C)CC4)ccc32)cc1C`, the “activity change, negative = inhibition” value was inactive: -2.36%.
In the case of `CCCN1C(C(=O)c2ccccc2)=C(OC(=O)c2ccc(C)cc2)c2ccccc2S1(=O)=O`, the “activity change, negative = inhibition” value is reported as inactive: 3.52%.
In the case of `Cc1cccc(NC(=O)CSc2nc(=O)n(Cc3cccnc3)c3c2CCC3)c1`, the “activity change, negative = inhibition” value is reported as inactive: -4.99%.
For `COc1ccc(NC(=O)c2c(C)oc3ccc(O)c(CN4CCOCC4)c23)cc1`, the “activity change, negative = inhibition” value was inactive: 6.28%.
In the case of `O=C(COc1ccc(Cl)cc1)NCCc1csc(-c2cccc(F)c2)n1`, the “activity change, negative = inhibition” value is reported as inactive: 1.67%.
In the case of `COc1cc(NC(=O)c2ncn(-c3ccccc3)n2)cc(OC)c1`, the “activity change, negative = inhibition” value is reported as inactive: -10.3%.
With `Cn1ncc(C(=O)N2CCN(c3ccccc3F)CC2)c1C1CCN(C(=O)OC(C)(C)C)CC1` the “activity change, negative = inhibition” value was inactive: 4.08%.
In the case of `CC(=O)c1ccc(NC(=O)CSc2nccn2Cc2ccc3c(c2)OCO3)cc1`, the “activity change, negative = inhibition” value is reported as inactive: -11%.
With `Cc1cc(SCC(=O)NCc2ccc(F)cc2)nc(=O)[nH]1` the “activity change, negative = inhibition” value was inactive: 0.699%.
For `CCCCN(CC)CCCNC(=O)c1cn(CC)c2ccc(S(=O)(=O)N3CCOCC3)cc2c1=O`, the “activity change, negative = inhibition” value was inactive: -13.9%.
For `O=C(COCc1cc(-c2ccco2)on1)Nc1cccc(Cl)c1Cl`, the “activity change, negative = inhibition” value was inactive: -9.37%.
In the case of `COc1ccc(C2N3CC4(C)CN2CC(c2ccccc2)(C3)C4=O)cc1` (stereo unspecified), the “activity change, negative = inhibition” value is reported as inactive: 1.25%.
For `CCOc1ccccc1-n1nnc(S(=O)(=O)c2ccc(C)cc2)c1N`, the “activity change, negative = inhibition” value was inactive: -9.27%.
For `CCOc1ccc(NC(=O)CN2CCN(c3ccc(Cl)cc3)CC2)cc1`, the “activity change, negative = inhibition” value was inactive: 10.8%.
In the case of `O=C(c1cc(F)cc(F)c1)N1CCC(c2nc(-c3ccc(S(=O)(=O)N4CCCC4)cc3)no2)CC1`, the “activity change, negative = inhibition” value is reported as inactive: -3.69%.
In the case of `COc1ccc(OC)c(CCNC(=O)c2cc3c(=O)n(C)c4ccccc4c3n2C)c1`, the “activity change, negative = inhibition” value is reported as inactive: 1.97%.
For `COc1ccc(CN(C(=O)Cc2coc3ccc(C)cc23)C2CCS(=O)(=O)C2)cc1` (stereo unspecified), the “activity change, negative = inhibition” value was inactive: -8.72%.
With `CCOC(=O)c1cccc(NC(=O)C2CCCN(S(=O)(=O)c3cc(Br)cc4c3N(C(=O)CC)CC4)C2)c1` (stereo unspecified) the “activity change, negative = inhibition” value was inactive: -3.03%.
In the case of `CCc1cccc(NC(=O)CCN2C(=O)c3ccccc3Sc3ncccc32)c1`, the “activity change, negative = inhibition” value is reported as inactive: -14.7%.
In the case of `COc1cc(Cl)c(C)cc1NC(=O)c1cc2c(s1)-c1c(C)cccc1OC2`, the “activity change, negative = inhibition” value is reported as inactive: -8.63%.
With `O=C(Cn1c(=O)nc(-c2ccccc2)c2cc(Cl)ccc21)NCCc1ccccc1` the “activity change, negative = inhibition” value was inactive: 10.2%.
In the case of `CCc1nn(CC(=O)N2CCN(c3cccc(C)c3C)CC2)c(=O)c2cc3sccc3n12`, the “activity change, negative = inhibition” value is reported as inactive: 0.845%.
For `CCC(=O)N1CCc2cc(S(=O)(=O)NC(CC(C)C)C(=O)NCc3ccc(C)cc3)ccc21` (stereo unspecified), the “activity change, negative = inhibition” value was inactive: -18.2%.
In the case of `Cc1ccc(O)c(-c2n[nH]c3c2C(c2ccccc2F)N(Cc2ccco2)C3=O)c1` (stereo unspecified), the “activity change, negative = inhibition” value is reported as inactive: -3.32%.
In the case of `Cc1sc2ncn(CC(=O)N3CCN(c4ccc(F)cc4)CC3)c(=O)c2c1S(=O)(=O)N1CCN(c2ncccn2)CC1`, the “activity change, negative = inhibition” value is reported as inactive: 0.0376%.
In the case of `Cc1cc2[nH]c(=O)c(=O)[nH]c2cc1S(=O)(=O)Nc1cccc(C(F)(F)F)c1`, the “activity change, negative = inhibition” value is reported as inactive: 1.81%.
In the case of `COc1cccc(CNC(=O)CCS(=O)(=O)c2ccc3c(c2)CC(C)N3C(=O)C2CC2)c1` (stereo unspecified), the “activity change, negative = inhibition” value is reported as inactive: -5.37%.
With `O=C1c2oc3ccccc3c(=O)c2C(c2cccc(Br)c2)N1c1ccccn1` (stereo unspecified) the “activity change, negative = inhibition” value was inactive: -7.95%.
In the case of `Cc1ccccc1NC(=O)Nc1cccs1`, the “activity change, negative = inhibition” value is reported as inactive: -0.798%.
